Experimental data published in the supplement of paper PMC12217912.
The list shows a part of the results. The full chains were built here from the parent and the listed change. Values near 0.05 are background.

B1: TEV protease; numbered along this chain (parent)
chain: MGESLFKGPRDYNPISSSICHLTNESDGHTTSLYGIGFGPFIITNKHLFRRNNGTLVVQSLHGVFKVKDTTTLQQHLVDGRDMIIIRMPKDFPPFPQKLKFREPQREERICLVTTNFQTKSMSSMVSDTSCTFPSGDGIFWKHWIQTKDGQCGSPLVSTRDGFIVGIHSASNFTNTNNYFTSVPKNFMELLTNQEAQQWVSGWRLNADSVLWGGHKVFMVKPEEPFQPVKEATQL

Variants of: B1
Experiment: raw area under fraction-flipped curve 0-4 h after induction (AUC4h, not background-subtracted), DNA-recorder readout of cleavage of the substrate (dimensionless); higher = more cleavage of the substrate by the protease variant
Conditions: temperature: 34 °C; time window: 0-4 h after rhamnose induction
Procedure: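 In vivo DNA recorder in E. coli TOP10(DE3) ΔrhaA at 34 °C. Each TEVp single-site mutant (parent TEVp 0) is paired with a single-site variant of the 7-mer TEVs (canonical ENLYFQ|S). The substrate sits between flexible linkers in a Bxb1-sfGFP-TEVs-SsrA fusion, so cleavage stabilises Bxb1 and speeds flipping of a recombination array, read by NGS. The value is the raw area under the fraction-flipped curve over 0-4 h after rhamnose induction (AUC4h), with ≥20 reads per time point. It is not background-subtracted; inactive controls average about 0.047.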
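Further: Bxb1 expression induced with 0.2% (w/v) L-rhamnose at OD600 near 0.5, cultures sampled hourly, flipped fraction per protease–substrate barcode pair counted by paired-end Illumina sequencing.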

| Variant | area with substrate ENLYAQS | area with substrate ENLYDQS | area with substrate ENLYEQS | area with substrate ENLYGQS | area with substrate ENLYHQS | area with substrate ENLYLQS | area with substrate ENLYMQS | area with substrate ENLYNQS | area with substrate ENLYPQS | area with substrate ENLYQQS | area with substrate ENLYRQS | area with substrate ENLYWQS | area with substrate ENLYIQS | area with substrate ENLYKQS | area with substrate ENLYSQS | area with substrate ENLYYQS | area with substrate ENLYCQS | area with substrate ENLYTQS | area with substrate ENLYVQS |
| --- | --- | --- | --- | --- | --- | --- | --- | --- | --- | --- | --- | --- | --- | --- | --- | --- | --- | --- | --- |
| F41H | 0.0721 | 0.0587 | 0.061 | 0.0618 | 0.064 | 0.0885 | 0.0817 | 0.0621 | 0.0892 | 0.0563 | 0.0585 | 0.0881 |  |  |  |  |  |  |  |
| I42K | 0.0591 | 0.0483 | 0.0428 | 0.0457 | 0.0476 | 0.0376 | 0.046 | 0.0529 | 0.0464 | 0.0509 | 0.0457 | 0.0395 | 0.0424 | 0.0399 | 0.045 | 0.0465 |  |  |  |
| F49W | 0.0651 | 0.0303 | 0.0635 | 0.0733 | 0.0661 | 0.0818 | 0.0671 | 0.0732 | 0.0563 |  | 0.0456 | 0.0754 | 0.11 | 0.0652 | 0.0604 | 0.0577 | 0.0717 | 0.0845 | 0.0981 |
| R50G | 0.0715 | 0.0613 | 0.0628 | 0.0629 | 0.0647 | 0.0711 | 0.0853 | 0.0636 | 0.0688 |  |  | 0.0627 | 0.123 | 0.0626 |  | 0.0562 | 0.0782 | 0.0657 |  |
| R50M | 0.0804 |  | 0.0648 | 0.0728 | 0.0939 | 0.124 | 0.0657 |  | 0.0812 |  | 0.0624 | 0.107 |  |  |  |  |  |  |  |
| R51P | 0.0715 | 0.048 | 0.0665 | 0.0534 | 0.0709 |  |  | 0.0714 | 0.0576 | 0.046 | 0.0635 | 0.0458 | 0.0762 | 0.0664 |  | 0.0635 |  | 0.0708 |  |
| R51W | 0.0914 | 0.0908 | 0.059 | 0.0438 | 0.0659 |  |  |  | 0.0898 | 0.0651 |  |  | 0.128 | 0.0418 |  |  |  | 0.102 |  |
| N52A | 0.0774 |  | 0.053 | 0.0581 | 0.0627 |  |  | 0.0467 |  | 0.056 |  |  |  | 0.0613 |  | 0.0609 |  | 0.0643 | 0.0757 |
| N52E | 0.0732 |  | 0.0634 | 0.0628 | 0.0686 |  | 0.054 | 0.0639 |  | 0.0711 | 0.0619 | 0.0571 |  | 0.0593 | 0.0593 | 0.0604 |  | 0.0836 |  |
| N53W | 0.0647 | 0.064 | 0.0583 | 0.0595 | 0.0647 |  | 0.0919 | 0.0681 | 0.0529 | 0.0699 | 0.0525 | 0.0652 | 0.128 | 0.0644 | 0.0776 | 0.0562 | 0.06 | 0.0717 | 0.0896 |
| N53Y | 0.0607 | 0.0614 | 0.0688 | 0.0626 | 0.0563 | 0.0629 | 0.072 | 0.0572 |  |  | 0.0617 | 0.062 | 0.0801 | 0.0635 | 0.0584 | 0.0708 | 0.078 | 0.0377 | 0.0885 |
| T55D | 0.0881 | 0.0576 | 0.0635 |  | 0.0517 |  | 0.0762 | 0.0435 | 0.0773 |  | 0.0576 | 0.073 | 0.113 | 0.0651 | 0.072 |  | 0.0746 |  | 0.0349 |
| T55L | 0.0893 | 0.0675 | 0.0625 | 0.0633 | 0.0625 |  | 0.0823 | 0.0689 | 0.0605 | 0.065 | 0.0672 | 0.0713 | 0.111 | 0.0406 | 0.0349 |  |  |  |  |
| T55N | 0.0784 |  | 0.0783 | 0.0732 | 0.0565 |  | 0.0757 | 0.0642 |  | 0.0627 |  | 0.09 |  | 0.0602 | 0.147 | 0.0833 | 0.0701 | 0.0741 | 0.125 |
| Q59D | 0.0802 |  | 0.063 |  | 0.0375 |  | 0.0513 |  | 0.0709 |  | 0.1 |  |  |  |  |  |  | 0.0979 | 0.124 |
| L61R | 0.0917 |  |  | 0.0743 | 0.0763 |  | 0.0955 | 0.0624 | 0.0738 | 0.059 |  | 0.0861 |  |  |  |  | 0.0648 |  | 0.181 |
| G63S | 0.0787 | 0.0583 | 0.0622 | 0.0594 | 0.0772 | 0.0852 | 0.0769 | 0.0684 | 0.0587 | 0.0555 | 0.0268 | 0.0648 | 0.119 | 0.0658 |  | 0.0832 |  |  | 0.131 |
| K66G | 0.0711 | 0.0305 | 0.0609 | 0.0442 | 0.0683 | 0.081 | 0.0686 | 0.0507 | 0.0626 |  | 0.0519 | 0.0846 |  |  | 0.0719 | 0.056 | 0.094 | 0.0685 | 0.102 |
| V67I | 0.0861 |  |  | 0.0529 | 0.0777 |  |  | 0.071 | 0.0656 | 0.062 | 0.0606 |  |  | 0.0676 | 0.0766 |  |  |  |  |
| V67K | 0.0438 | 0.0665 | 0.0562 |  | 0.0569 | 0.0623 | 0.0586 | 0.0057 | 0.0634 | 0.0514 | 0.0582 | 0.0727 | 0.0659 | 0.0574 |  | 0.0565 |  |  |  |
| V67N | 0.0716 |  | 0.0457 | 0.0754 | 0.0585 | 0.0759 |  |  |  | 0.0397 |  |  |  | 0.0631 |  |  |  | 0.0852 |  |
| K68G | 0.0785 |  |  | 0.0596 |  |  |  |  | 0.0664 |  | 0.0549 | 0.0821 |  | 0.085 | 0.112 | 0.0577 |  | 0.101 |  |
| K68P | 0.0739 | 0.0601 | 0.0701 |  | 0.0662 | 0.0913 | 0.0747 | 0.0748 | 0.0696 | 0.051 | 0.0568 | 0.103 | 0.146 | 0.0425 |  |  |  |  |  |
| T70P | 0.0616 | 0.057 | 0.0572 | 0.0704 | 0.0435 | 0.0581 | 0.0629 | 0.047 | 0.0577 |  | 0.0659 | 0.0556 | 0.0618 |  | 0.0606 |  | 0.0554 |  | 0.114 |
| T71G | 0.0971 | 0.0469 | 0.0649 | 0.0564 | 0.0667 |  | 0.068 | 0.059 | 0.047 | 0.061 | 0.0533 |  | 0.079 | 0.0283 |  |  |  |  |  |
| T71K | 0.0911 |  |  |  | 0.0674 |  |  | 0.0328 |  |  | 0.0772 |  |  | 0.0606 | 0.0659 | 0.0782 |  |  | 0.13 |
| T71N | 0.0819 | 0.0621 | 0.057 | 0.0586 | 0.0493 | 0.0795 |  | 0.0632 | 0.0663 |  | 0.061 |  | 0.107 | 0.0657 | 0.0537 | 0.0754 |  | 0.0693 | 0.101 |
